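96-well plates; 48 h exposure; 5 concentrations. Endpoints by linear interpolation between flanking doses. Not reached: highest tested concentration assigned. GI50 marks 50% less growth.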 Activity calls are given as the source filed them. Rule as the data show it: active = GI50 up to about 1.1 µM and inactive = higher.
system: NCI-H322M; test: DTP human tumour cell line panel, 48 h

SMILES | GI50
CC(=O)OCC1OC(n2c(C)c(C(C)=O)c(-c3ccc(Cl)cc3)c(C#N)c2=S)C(OC(C)=O)C(OC(C)=O)C1OC(C)=O (stereo not given) | inactive: > 100 µM
O=[N+]([O-])c1ccc(-c2ccc(C3=Nn4c(nnc4-c4ccc(Cl)cc4)SC3)o2)cc1 | inactive: > 91.4 µM
c1cncc(-c2ncc3cccnc3n2)c1 | inactive: > 100 µM
Oc1ccc(Cc2nccc3cc(O)c(O)cc23)cc1O | inactive: 57.4 µM
Cc1ccc(S(=O)(=O)N2CCCSCC2)cc1 | inactive: > 100 µM
CNc1cc2oc(=O)cc(C)c2cc1C | inactive: > 100 µM
Cc1c(Cl)ccc2c(=O)c3cccc(CC(=O)O)c3oc12 | inactive: > 100 µM
COCC(OC)C(CC=C(C#N)C#N)OC (stereo not given) | inactive: > 100 µM
Cc1ccc(-c2cc(-c3c(C)nn(C)c(=O)c3N)n[nH]2)cc1 | inactive: > 100 µM
COC(=O)C(CCCCN)NC(C)=O.Cc1ccc(C(=O)Nc2ccc(S(=O)(=O)O)c3cc(S(=O)(=O)O)cc(S(=O)(=O)O)c23)cc1NC(=O)c1cccc(NC(=O)Nc2cccc(C(=O)Nc3cc(C(=O)Nc4ccc(S(=O)(=O)O)c5cc(S(=O)(=O)O)cc(S(=O)(=O)O)c45)ccc3C)c2)c1 | inactive: > 50 µM
O=c1c2nn3c(=O)n(-c4ccccc4)c(=O)c3nn2c(=O)n1-c1ccccc1 | inactive: > 100 µM
Cn1cnc2nc(Cl)nc(NC(C)(C)C(C)(C)O)c21 | inactive: > 100 µM
CCCCOP1(=O)C=CC(Cl)=C(C)C1 (stereo not given) | inactive: > 100 µM
O=C(CC(c1ccccc1)N1CCCCC1)c1ccccc1 (stereo not given) | inactive: 17.3 µM
COC(=O)CCC(=O)NC1=C(NCc2ccccc2)C(=O)c2ccccc2C1=O | inactive: 43.4 µM
CCCNC(=O)CCC(C)[C@H]1CCC2C3C(C[C@H](OC(C)=O)[C@@]21C)[C@@]1(C)CCC2(C[C@H]1C[C@H]3OC(C)=O)OOC1(CCC(C)CC1)OO2 (stereo not given in full) | inactive: 58.9 µM
COC(=O)c1cc(OS(=O)(=O)C(F)(F)F)c(=O)n2c1CCCC2 | inactive: > 100 µM
N/N=C(\Cc1ccccc1)NN=C(N)N | inactive: > 100 µM

SMILES | GI50
CCCCCCC(C)CC(CCCCCC)NCCOC(=O)c1ccc([N+](=O)[O-])cc1 (stereo not given) | inactive: 12.9 µM
CCOc1ccc2c(c1)[n+]([O-])c(-c1ccccc1Cl)c(N)[n+]2[O-] | inactive: > 100 µM
CC1CN=C(Nc2ccccc2)S1 (stereo not given) | inactive: > 100 µM
COc1ccc(C[C@@H](CO)NC2=C(C#N)CCC2)cc1 | inactive: 29.8 µM
NC(=O)N/N=C(\Cc1nc2ccc(Cl)cc2nc1O)C(=O)Nc1ccc(Cl)cc1Cl | inactive: > 100 µM
CN1C(=O)[C@@H]2N(CSC2(C)C)C1=S | inactive: > 100 µM
CC(=O)OCC1OC(N2C(=O)/C(=C\c3ccc(Cl)cc3)C(N)=Nc3ccccc32)C(OC(C)=O)C(OC(C)=O)C1OC(C)=O (stereo not given) | inactive: 39.4 µM
CN(C)/C=N/c1ccc2c3c(cccc13)-c1ccccc1-2 | inactive: 14.8 µM
CCN1C[C@]2(C)CC[C@H](O)C34C1C(C[C@@H]32)[C@@]1(O)CC[C@H]2C[C@@H]4[C@@H]1[C@H]2O | inactive: > 100 µM
CC[C@H](C)[C@H]1NC(=O)C(C(C)=O)=C1O | inactive: > 100 µM
CCOC(=O)Cc1cnc(NC(NC(=O)CC)(C(F)(F)F)C(F)(F)F)s1 | inactive: > 100 µM
ClCCCC1COc2ccccc2O1 (stereo not given) | inactive: 62.8 µM
COC(=O)[C@@H]1c2cc3c(c(O)c2[C@@H](OC)C[C@@]1(C)O)C(=O)c1c(O)cc2c(c1C3=O)OC1O[C@@]2(C)[C@H](O)[C@@H](N(C)C)[C@@H]1O | active: 0.379 µM
COc1cccc2c1[C@H]1OC(=O)NC1CCCCC2 (stereo not given in full) | inactive: > 100 µM
Cc1ccc(S(=O)(=O)N(CC(O)c2ccccc2)c2ccccc2F)cc1 (stereo not given) | inactive: 15 µM
CC1(C)Cc2c(c3ccccc3c3nc4c(nc23)c2c(c3ccccc34)OC(C)(C)C2)O1 | inactive: > 100 µM
CCCCCCCCCCCCCC(=O)OC(/C=C/C(C)C)C(O)C(O)C(OC)C(=O)NC1CCCCN(C)C1=O (stereo not given) | inactive: 4.37 µM
